In PubChem BioAssay AID485294 (National Center for Advancing Translational Sciences (NCATS), 2010):
Out of some 370,000 compounds screened, about 150 (0.041%) were called active. The shares of active, inactive and inconclusive entries below differ from those in the screen. Calls come from the whole dose curve; as a rule, active = well fitted inhibition curve with a large enough effect; inconclusive = small, poorly fitted or top-dose-only effect; inactive = flat fitted curve, though single readings scatter. No potency is given beside an inconclusive call; the fits are too rough.

These molecules were tested against Beta-lactamase (Escherichia coli (strain K12)) (UniProt P00811) (assay: qHTS Inhibitors of AmpC Beta-Lactamase (assay with detergent)). Conditions: AmpC hydrolysis of nitrocefin, absorbance 480 nm, 0.01% Triton; activity change, negative = inhibition: at 114 µM (top of the series).
In short: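 AmpC (5.3 nM in the dispensed reagent) in 20 mM phosphate pH 7.0 with 0.01% (detergent screen) or 0.0001% Triton X-100 was preincubated with compounds for 15 min at room temperature. Nitrocefin was then added from an 800 uM solution, and hydrolysis was followed at 480 nm.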
Note: nearly all actives have a fitted effect of over 25% in size.
Potency is the fitted concentration of half-maximal effect; tags give direction and shape of the fitted curve.
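Throughout, for activity change, negative = inhibition: 0% = no-compound wells and -100% = no-enzyme wells.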

Sequence of UniProt P00811 (P00811 whole entry, looked up): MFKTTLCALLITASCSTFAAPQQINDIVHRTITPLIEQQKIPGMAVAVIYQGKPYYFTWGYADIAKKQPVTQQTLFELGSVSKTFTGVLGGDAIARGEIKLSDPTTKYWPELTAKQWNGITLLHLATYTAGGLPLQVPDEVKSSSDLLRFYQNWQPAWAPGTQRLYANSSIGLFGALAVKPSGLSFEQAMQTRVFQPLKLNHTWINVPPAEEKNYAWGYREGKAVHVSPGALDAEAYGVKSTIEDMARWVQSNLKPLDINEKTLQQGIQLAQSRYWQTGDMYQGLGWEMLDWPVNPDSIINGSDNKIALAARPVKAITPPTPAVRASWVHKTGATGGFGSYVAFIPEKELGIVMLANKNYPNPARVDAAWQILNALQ

Q: With `CCc1sc(C(=O)NC2CCN(C)CC2)cc1Br` as the molecule, how does the Potency read?
A: inconclusive [inhibitor, single point]

Q: With `Cc1cc(=O)oc2cc(OCC(=O)OCC(=O)NC(=O)NC(C)C)ccc12` as the molecule, how does the Potency read?
A: inconclusive [inhibitor, full curve, poor fit]

Q: `O=C(CN1C(=O)NC2(CCCC2)C1=O)Nc1ccc(C(F)(F)F)cc1` was tested. Which Potency did it give?
A: inconclusive [inhibitor, single point]

Q: With `C=CCOc1cccc(CNCc2ccncc2)c1` as the molecule, how does the Potency read?
A: inconclusive [inhibitor, single point]

Q: With `N/C(=N\OS(=O)(=O)c1ccccc1)c1ccncc1` as the molecule, how does the Potency read?
A: inconclusive [inhibitor, partial curve, poor fit]

Q: Which “activity change, negative = inhibition” value does the source give for `Cc1ccccc1-c1coc2cc(O)ccc2c1=O` here?
A: inactive: 1.28%

Q: Which Potency does the source give for `COc1ccc(NC(=S)N2CCN(Cc3ccco3)CC2)c(OC)c1` here?
A: inconclusive [inhibitor, single point]

Q: `COc1cc(S(=O)(=O)N2CCCCCC2)ccc1Cl` was tested. Which Potency did it give?
A: inconclusive [inhibitor, full curve]

Q: Which Potency does the source give for `Cc1ccc(NS(=O)(=O)c2ccc(C(=O)N3CCN(S(=O)(=O)c4ccccc4)CC3)cc2)cc1` here?
A: inconclusive [inhibitor, partial curve]

Q: `Cc1ccc(-c2c(NC(=O)c3ccco3)oc3ccccc3c2=O)cc1` was tested. Which Potency did it give?
A: inconclusive [inhibitor, full curve]

Q: With `CCOc1ccc(NC(=O)c2ccccc2OCC(=O)c2ccc(C)cc2)cc1` as the molecule, how does the Potency read?
A: inconclusive [inhibitor, single point]

Q: `O=C(COC(=O)c1cc2c(s1)CCC2)Nc1ccc(F)cc1` was tested. Which Potency did it give?
A: inconclusive [inhibitor, partial curve]

Q: Which Potency does the source give for `COc1ccc2ccccc2c1/C=N/n1cnnc1` here?
A: inconclusive [inhibitor, partial curve, poor fit]

Q: For `Cc1ccccc1NS(=O)(=O)c1ccc(N2CCCC2=O)cc1`, which Potency is on record?
A: inconclusive [inhibitor, full curve, poor fit]

Q: With `CN(C)S(=O)(=O)c1cccc(NC(=O)c2ccc(S(=O)(=O)N3CCCCC3)cc2)c1` as the molecule, how does the Potency read?
A: inconclusive [inhibitor, full curve, poor fit]

Q: How did the Potency turn out when `O=C(CCN1C(=O)c2ccccc2C1=O)Nc1cccc(F)c1` was run?
A: inconclusive [inhibitor, single point]

Q: With `Cc1ccc(Sc2ncccc2COC(=O)Nc2c(C)cccc2C)cc1` as the molecule, how does the Potency read?
A: inconclusive [inhibitor, single point]

Q: With `Cc1nn(C)c2c1c(C(F)(F)F)cc(=O)n2Cc1ccc(Br)cc1F` as the molecule, how does the “activity change, negative = inhibition” value read?
A: inactive: 1.85%

Q: `COc1cccc(C(=O)c2cn(CC(=O)NCc3ccco3)c3nc(C)ccc3c2=O)c1` was tested. Which Potency did it give?
A: inconclusive [inhibitor, full curve, poor fit]

Q: With `COc1ccc(CCC(=O)N2CCC3(CC2)OCCO3)cc1` as the molecule, how does the Potency read?
A: inconclusive [inhibitor, single point]

Q: How did the Potency turn out when `Cc1oc(-c2cccs2)nc1CS(=O)CC(=O)NCCCN1CC(C)CC(C)C1` (stereo not drawn) was run?
A: inconclusive [inhibitor, full curve, poor fit]

Q: How did the Potency turn out when `CCc1ccc(-c2nc(SCC(=O)NC3CCCC3)n[nH]2)cc1` was run?
A: inconclusive [inhibitor, full curve, poor fit]

Q: Which Potency does the source give for `CC(C)Cn1c(N)c(C(=O)COC(=O)C2CC(=O)N(c3ccc4c(c3)OCCO4)C2)c(=O)n(C)c1=O` (stereo not drawn) here?
A: inconclusive [inhibitor, full curve, poor fit]

Q: `COC(=O)Cc1cc(=O)n(-c2ccccc2)[nH]1` was tested. Which Potency did it give?
A: inconclusive [inhibitor, single point]

Q: How did the Potency turn out when `Cc1cc(NS(=O)(=O)c2ccc(NC(=O)c3ccc(Cl)cc3Cl)cc2)no1` was run?
A: inconclusive [inhibitor, single point]

Q: For `O=[N+]([O-])c1ccc(C[n+]2c(-c3ccccc3)cc(-c3ccccc3)cc2-c2ccccc2)cc1`, which “activity change, negative = inhibition” value is on record?
A: inactive: -5.42%

Q: How did the “activity change, negative = inhibition” value turn out when `O=C(CCC1CCCN(C(=O)Cc2cccc(F)c2)C1)N1CCN(c2ccccn2)CC1` (stereo not drawn) was run?
A: inactive: 2.82%

Q: With `O=C(COC(=O)c1ccco1)c1ccc(Cl)cc1` as the molecule, how does the “activity change, negative = inhibition” value read?
A: inactive: -1.56%

Q: How did the Potency turn out when `COc1ccc(C2=NS(=O)(=O)N(C)C(C(=O)N3CCc4ccccc4C3)=C2)cc1OC` was run?
A: inconclusive [inhibitor, full curve, poor fit]

Q: For `Cc1ccc(-c2cccc(NC(=O)C3C4C=CC(C4)C3C(=O)O)c2)o1` (stereo not drawn), which Potency is on record?
A: inconclusive [inhibitor, full curve, poor fit]

Q: How did the “activity change, negative = inhibition” value turn out when `CCC1CN(C(=O)N2CCC(C(=O)NCc3ccccc3OC)CC2)c2cc(C)ccc2O1` (stereo not drawn) was run?
A: inactive: -5.52%

Q: For `CCOC(=O)c1cc(S(=O)(=O)Nc2ccc(OC)cc2OC)cn1C`, which “activity change, negative = inhibition” value is on record?
A: inactive: 1.97%

Q: Which “activity change, negative = inhibition” value does the source give for `COc1ccc(-n2ncc(C(C)NS(=O)(=O)c3cccs3)c2C)cc1` (stereo not drawn) here?
A: inactive: -10.6%

Q: How did the “activity change, negative = inhibition” value turn out when `O=C(N/N=C/c1ccncc1)c1ccccn1` was run?
A: inactive: 5.88%

Q: How did the “activity change, negative = inhibition” value turn out when `O=C(Nc1ncccc1O)c1ccc2ccccc2c1` was run?
A: inactive: -7.27%

Q: For `O=[N+]([O-])c1ccc(/C=N\NS(=O)(=O)c2ccc(F)cc2)o1`, which Potency is on record?
A: inconclusive [inhibitor, full curve]

Q: How did the Potency turn out when `CC(C)CCN(CCC(C)C)C/C(O)=C(\C#N)c1nc(-c2ccccc2)cs1` was run?
A: inconclusive [inhibitor, full curve]

Q: `COc1ccc(C(=O)NCc2nnc(SCC(=O)NCc3ccco3)o2)cc1` was tested. Which Potency did it give?
A: inconclusive [inhibitor, partial curve, poor fit]

Q: For `Cc1ccc(OCCCC(=O)NC2CCCCC2)cc1`, which “activity change, negative = inhibition” value is on record?
A: inactive: 0.237%

Q: With `CCCN(CCC)CCNS(=O)(=O)c1ccc2c(c1)CCN2C(=O)C1CCC1` as the molecule, how does the Potency read?
A: inconclusive [inhibitor, full curve, poor fit]

Q: Which Potency does the source give for `Cc1ccc(N2C(=O)N(CC(=O)N3c4ccccc4CC3C)C(=O)C2C)cc1` (stereo not drawn) here?
A: inconclusive [inhibitor, full curve, poor fit]

Q: For `C[C@@H]1C(NC(=O)c2ccccc2)CC2CC1C2(C)C` (stereo partly drawn), which “activity change, negative = inhibition” value is on record?
A: inactive: 1.19%

Q: Which Potency does the source give for `CC(C)CN1CCC(Oc2cccc(C(=O)NCCc3ccccc3)c2)CC1` here?
A: inconclusive [inhibitor, full curve]
